These results are taken from the antibiotic and cytotoxicity screens of Wong et al. (2023).

Each structure is given as a SMILES string. This is one part of the list.

Experiment [1] relates to HSkMC (human skeletal muscle cells). Briefly: cytotoxicity call (relative viability < 0.9). Conditions: 10 µM.
Experiment [2] relates to S. aureus RN4220. The experiment in a line: growth inhibition call (relative growth <= 0.2). Conditions: 50 µM.

Take `C[C@@H]1CN([C@H](C)CO)C(=O)CCCn2nncc2CO[C@@H]1CN(C)C(=O)c1ccc(N2CCN(C)CC2)cc1`: the cytotoxicity call in experiment [1] was “inactive”. Besides, the growth inhibition call in experiment [2] is “inactive”.
For the molecule `Cc1ccc(S(=O)(=O)N(C)C[C@H]2OCCCC[C@H](C)Oc3ccc(NC(=O)Nc4ccc(C(F)(F)F)cc4)cc3C(=O)N([C@@H](C)CO)C[C@@H]2C)cc1`, in experiment [1], the cytotoxicity call was “inactive”. For the same molecule, the growth inhibition call in experiment [2] is “inactive”.
Take `O=C(C[C@@H]1C[C@H]2c3cc(NC(=O)NC4CCCC4)ccc3O[C@H]2[C@@H](CO)O1)NCc1ccc(Oc2ccccc2)cc1`: in experiment [1], the cytotoxicity call is “inactive”. Also, in experiment [2], the growth inhibition call is “inactive”.
Take `Cc1ccc(S(=O)(=O)N(C)C[C@H]2Oc3ccc(NC(=O)NC(C)C)cc3C(=O)N([C@@H](C)CO)C[C@@H]2C)cc1`: the cytotoxicity call in experiment [1] was “inactive”. Moreover, in experiment [2], the growth inhibition call is “inactive”.
Turning to `C[C@@H]1CN([C@@H](C)CO)C(=O)c2cc(NS(=O)(=O)c3cccs3)ccc2O[C@@H](C)CCCCO[C@@H]1CN(C)C(=O)NC1CCCCC1`, the cytotoxicity call in experiment [1] is “inactive”. For the same molecule, in experiment [2], the growth inhibition call was “inactive”.
Regarding `Cc1ccc(S(=O)(=O)Nc2ccc3c(c2)CC(=O)N([C@@H](C)CO)C[C@@H](C)[C@H](CN(C)Cc2ccc(Cl)c(Cl)c2)O3)cc1`, the cytotoxicity call in experiment [1] is “inactive”. The growth inhibition call in experiment [2] is “inactive”.
Regarding `COc1ccccc1S(=O)(=O)N(C)C[C@@H]1Oc2cc(C#CCC(C)C)ccc2S(=O)(=O)N([C@@H](C)CO)C[C@H]1C`, in experiment [1], the cytotoxicity call was “inactive”. For the same molecule, the growth inhibition call in experiment [2] was “inactive”.
On to `Cc1noc(C)c1NC(=O)Nc1ccc2c(c1)C(=O)N([C@H](C)CO)C[C@H](C)[C@H](CN(C)C(=O)C1CCCCC1)OCCCC[C@@H](C)O2`, for which the cytotoxicity call in experiment [1] is “inactive”. For the same molecule, in experiment [2], the growth inhibition call was “inactive”.
On to `CC(C)(C)[S@](=O)N1Cc2cc(C(=O)N[C@@H]3CCN(Cc4ccccc4)C3)nc(-c3cccc(-c4ccncc4)c3)c2[C@@H]1CCO`, for which, in experiment [1], the cytotoxicity call was “inactive”. Besides, in experiment [2], the growth inhibition call was “inactive”.
Take `CC(C)CC(=O)N1CCN(S(C)(=O)=O)CC1`: the cytotoxicity call in experiment [1] was “inactive”. Also, the growth inhibition call in experiment [2] is “inactive”.
For the molecule `O=C(C1=C[C@@H](C2CC2)C[C@@H](OCc2ccc(CO)cc2)O1)N1CCN(Cc2ccc3c(c2)OCO3)CC1`, the cytotoxicity call in experiment [1] was “inactive”. For the same molecule, the growth inhibition call in experiment [2] is “inactive”.
With `C[C@@H]1CN([C@@H](C)CO)C(=O)c2ccccc2-c2ccccc2CO[C@H]1CN(C)C(=O)c1cc(Cl)cc(Cl)c1`, in experiment [1], the cytotoxicity call is “inactive”. The growth inhibition call in experiment [2] is “inactive”.
Consider `C[C@@H]1CN([C@@H](C)CO)C(=O)c2cc(NS(=O)(=O)c3ccc(Cl)cc3)ccc2O[C@@H](C)CCCCO[C@@H]1CN(C)Cc1ccc2c(c1)OCO2`, for which, in experiment [1], the cytotoxicity call was “inactive”. The growth inhibition call in experiment [2] was “inactive”.
On to `O=C(CCCCCCC(=O)Nc1ccc([C@H]2C[C@H](c3ccccc3)O[C@H](c3cccc(Oc4ccccc4)c3)O2)cc1)NO`, for which the cytotoxicity call in experiment [1] is “inactive”. The growth inhibition call in experiment [2] is “inactive”.
As for `C[C@@H]1CN([C@@H](C)CO)C(=O)Cc2cc(NC(=O)Nc3ccccc3)ccc2O[C@H]1CN(C)Cc1ccc(Cl)c(Cl)c1`, in experiment [1], the cytotoxicity call is “inactive”. Also, in experiment [2], the growth inhibition call was “inactive”.
Take `COc1ccc(NC(=O)Nc2ccc3c(c2)C(=O)N([C@H](C)CO)C[C@H](C)[C@H](CN(C)Cc2ccncc2)OCCCC[C@@H](C)O3)cc1`: in experiment [1], the cytotoxicity call was “inactive”. In addition, in experiment [2], the growth inhibition call was “inactive”.
On to `C/C(C[P+](c1ccccc1)(c1ccccc1)c1ccccc1)=N\NC(=O)CCCCCC(=O)Nc1ccccc1O`, for which the cytotoxicity call in experiment [1] was “inactive”. Moreover, in experiment [2], the growth inhibition call was “inactive”.
`C[C@@H]1CCCCO[C@@H](CN(C)S(=O)(=O)c2ccccc2)[C@H](C)CN([C@H](C)CO)C(=O)c2cc(NC(=O)Nc3ccc(C(F)(F)F)cc3)ccc2O1`: the cytotoxicity call in experiment [1] is “inactive”. In experiment [2], the growth inhibition call is “inactive”.
For `Cc1ccc(S(=O)(=O)N(C)C[C@H]2Oc3ccc(NC(=O)CCN4CCOCC4)cc3CC(=O)N([C@H](C)CO)C[C@@H]2C)cc1`, the cytotoxicity call in experiment [1] was “inactive”. Besides, in experiment [2], the growth inhibition call is “inactive”.
On to `C[C@@H]1CN([C@@H](C)CO)C(=O)Cc2cc(NC(=O)Nc3ccc(C(F)(F)F)cc3)ccc2O[C@H]1CN(C)Cc1ccncc1`, for which, in experiment [1], the cytotoxicity call is “inactive”. Further, in experiment [2], the growth inhibition call was “inactive”.
In the case of `C[C@@H]1CN([C@@H](C)CO)C(=O)Cc2cc(NC(=O)Nc3cccc4ccccc34)ccc2O[C@H]1CN(C)Cc1ccc(-c2ccccc2)cc1`, the cytotoxicity call in experiment [1] was “inactive”. In experiment [2], the growth inhibition call was “inactive”.
`COc1ccc(NC(=O)Nc2ccc3c(c2)C(=O)N([C@@H](C)CO)C[C@@H](C)[C@@H](CN(C)CC2CCCCC2)OCCCC[C@H](C)O3)cc1`: the cytotoxicity call in experiment [1] is “inactive”. In experiment [2], the growth inhibition call is “inactive”.
Consider `COc1ccc(S(=O)(=O)N(C)C[C@H]2OCCCC[C@@H](C)Oc3ccc(NC(=O)c4ccccc4)cc3C(=O)N([C@@H](C)CO)C[C@H]2C)cc1`, for which the cytotoxicity call in experiment [1] was “inactive”. Further, in experiment [2], the growth inhibition call was “inactive”.
As to `C[C@@H]1CCCCO[C@H](CN(C)C(=O)Nc2ccc(F)cc2)[C@@H](C)CN([C@@H](C)CO)C(=O)c2cc(NC(=O)Nc3ccc(C(F)(F)F)cc3)ccc2O1`, the cytotoxicity call in experiment [1] was “inactive”. For the same molecule, in experiment [2], the growth inhibition call was “inactive”.
On to `Cc1ccc(S(=O)(=O)N(C)C[C@H]2OCCCC[C@H](C)Oc3ccc(NS(=O)(=O)c4ccc(F)cc4)cc3C(=O)N([C@@H](C)CO)C[C@H]2C)cc1`, for which, in experiment [1], the cytotoxicity call is “inactive”. The growth inhibition call in experiment [2] was “inactive”.
